Laboratory results taken from PubChem BioAssay AID493208 (National Center for Advancing Translational Sciences (NCATS), 2011).
Out of some 44,000 compounds screened, about 340 (0.77%) were called active. Inconclusive means that the source gave no clear call. Such entries were picked first, then a sample of the others. Calls follow the shape of the dose curve; as a rule, active = well fitted inhibition curve with a large enough effect; inconclusive = small, poorly fitted or top-dose-only effect; inactive = flat fitted curve, though single readings scatter. Potencies of inconclusive entries are left out as doubtful fits.

Assay: Acumen qHTS Assay for Inhibitors of the mTORC1 Signaling Pathway in MEF (Tsc2-/-, p53-/-) Cells: Sytravon; also: nearly all actives have a fitted effect of over 50% in size
Conditions: phospho-rpS6 immunofluorescence/PI, 24 h; series mostly up to 38.3 µM
Summary of the method: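 Tsc2-/-, p53-/- MEFs (empty-vector stable line) in DMEM + 10% FBS were treated with compounds 24 h at 37 degree Celsius, fixed, and immunostained for phospho-rpS6 (Alexa-488) with propidium iodide counterstain. Laser-scanning cytometry gave % positive cells, normalized against 7.5 nM rapamycin and DMSO.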
Potency is read from the fitted curve at half-maximal effect; tags tell the direction and shape of the fitted curve.

Question: With Cc1ccc2ccc3cc(C(=O)Nc4ccc(C)c(F)c4)nc3c2[nH]1 as the molecule, how does the Potency read?
Answer: inconclusive [falling, single point]

Question: Which Potency does the source give for CCOC(=O)c1cnc2c(ccc3ccccc32)c1Nc1ccc(OC)cc1OC here?
Answer: inconclusive [falling, partial curve]

Question: Which Potency does the source give for Cc1ccc(C)c(NC(=O)Cn2c(=O)n(Cc3ccc4c(c3)OCO4)c(=O)c3ccc(C(=O)NC4CCCCC4)cc32)c1 here?
Answer: inactive

Question: With Cc1c(Cl)cccc1NC(=O)C(=O)NCC(c1cccnc1)N1CCN(c2ccccc2)CC1 (centres undefined) as the molecule, how does the Potency read?
Answer: inconclusive [falling, partial curve, poor fit]

Question: Which Potency does the source give for COc1ccc(CNC(=O)CN2C(=O)CSc3ccc(S(=O)(=O)N4CCCC4)cc32)cc1 here?
Answer: inactive

Question: For CSc1cccc(NC(=O)Cn2cnc(S(=O)(=O)N3CCCC3)c2)c1, which Potency is on record?
Answer: inconclusive [falling, single point]

Question: For COc1cc2nc(Nc3ccc(F)cc3)nc(N)c2cc1OC, which Potency is on record?
Answer: inconclusive [falling, single point]

Question: With COc1ccc(CNC(=O)C(=O)NCC(c2ccco2)S(=O)(=O)c2ccc(C)cc2)cc1 (centres undefined) as the molecule, how does the Potency read?
Answer: inconclusive [falling, single point]

Question: Which Potency does the source give for COc1ccc(S(=O)(=O)Nc2cccc(-c3ccc(N4CCCC4)nn3)c2)cc1OC here?
Answer: inactive

Question: With Cc1ccc(OCC(=O)Nc2ccc3nc(Nc4cccc(Cl)c4)cc(C)c3c2)cc1 as the molecule, how does the Potency read?
Answer: inconclusive [falling, single point]

Question: For CCc1ccccc1NC(=O)Nc1cc(C(=O)NCc2ccc(OC)cc2)ccc1N1CCCC1, which Potency is on record?
Answer: inconclusive [falling, single point]

Question: With CCOCCCNC(=O)c1cc2c(=O)[nH]c3ccccc3c2n1C as the molecule, how does the Potency read?
Answer: inconclusive [falling, single point]

Question: With O=C(CCCn1ccc2cc(S(=O)(=O)N3CCCC3)ccc21)NCc1ccc(Cl)cc1 as the molecule, how does the Potency read?
Answer: active: 7.36 µM

Question: For Cc1ccc(CNC(=O)c2sc3nc(-c4ccc(F)cc4)ccc3c2N)cc1, which Potency is on record?
Answer: inconclusive [falling, partial curve, poor fit]

Question: For COc1ccc(C2CC(=O)c3c([nH]c(C(=O)OC4CCCCCC4)c3C)C2)cc1OC (centres undefined), which Potency is on record?
Answer: inactive

Question: For Cc1cccc(OCC(=O)N(Cc2ccc(C(C)C)cc2)Cc2ccco2)c1C, which Potency is on record?
Answer: inconclusive [falling, single point]

Question: For CCC1CCc2nc3sc(C(=O)Nc4ccc(F)c(F)c4)c(N)c3cc2C1 (centres undefined), which Potency is on record?
Answer: inconclusive [falling, single point]

Question: With Cn1c(-c2ccc(S(=O)(=O)N3CCCC3)cc2)csc1=Nc1ccc(Cl)c(Cl)c1 as the molecule, how does the Potency read?
Answer: inactive

Question: Which Potency does the source give for COc1ccc(Cl)cc1NC(=O)c1sc2nc3c(cc2c1N)CN(C)CC3 here?
Answer: inconclusive [falling, single point]

Question: Which Potency does the source give for CCN1CCOC(=O)C1CC(=O)Nc1cc(Cl)ccc1C (centres undefined) here?
Answer: inconclusive [falling, partial curve, poor fit]

Question: With CCOCCc1nn2c(=O)cc(COC(=O)c3ccccc3NC(=O)CC(C)C)nc2s1 as the molecule, how does the Potency read?
Answer: inactive

Question: With CC(C)CN(CC(C)C)S(=O)(=O)c1ccc(C(=O)Nc2sc3c(c2C(N)=O)CCN(C(C)C)C3)cc1 as the molecule, how does the Potency read?
Answer: inconclusive [falling, single point]

Question: With O=C(CCCCn1c(=O)c2ccccc2n(Cc2cccc(Cl)c2)c1=O)NCc1ccc2c(c1)OCO2 as the molecule, how does the Potency read?
Answer: inconclusive [falling, single point]

Question: For CCCn1c2ccccc2c2cnn(CC(=O)NCCCN(Cc3ccccc3)C(C)C)c(=O)c21, which Potency is on record?
Answer: inconclusive [falling, single point]

Question: Which Potency does the source give for COc1ccc(Nc2cc(C(=O)NCCCN(C)C3CCCCC3)c3ccccc3n2)c(OC)c1 here?
Answer: inconclusive [falling, single point]

Question: With CCOc1ccc(S(=O)(=O)Nc2cc(Cl)ccc2OC)c2cccnc12 as the molecule, how does the Potency read?
Answer: inconclusive [falling, partial curve, poor fit]

Question: Which Potency does the source give for COc1ccc(Nc2oc(/C=C/c3ccc(OC)c(OC)c3)nc2C#N)cc1 here?
Answer: inconclusive [falling, partial curve, poor fit]

Question: Which Potency does the source give for CC1=Nc2cc(C(=O)NC(C)C)ccc2Sc2ccc(C)cc21 here?
Answer: inconclusive [falling, single point]

Question: Which Potency does the source give for CCN(CC)CCNC(=O)c1ccc(-n2c(-c3ccccc3)cc3c2CCCC3)cc1 here?
Answer: inconclusive [falling, single point]

Question: With COc1ccc(N(C)C(=O)c2cc(S(=O)(=O)N3CCc4ccccc43)cn2C)c(OC)c1 as the molecule, how does the Potency read?
Answer: inconclusive [falling, partial curve]

Question: With COC(=O)CN1C(=O)C(O)(CC(=O)c2ccc(F)cc2)c2ccccc21 (centres undefined) as the molecule, how does the Potency read?
Answer: inconclusive [falling, single point]

Question: For O=c1oc2ccccc2cc1-c1cn2cc(Cc3ccccc3F)sc2n1, which Potency is on record?
Answer: inconclusive [falling, partial curve, poor fit]

Question: For COCCn1c(=N)c(C(=O)NCc2ccco2)cc2c(=O)n3cc(C)ccc3nc21, which Potency is on record?
Answer: inconclusive [falling, single point]

Question: For CCOc1ccc(-c2cc(C(=O)NCCc3ccc(Cl)cc3)c3ccccc3n2)cc1, which Potency is on record?
Answer: inactive

Question: Which Potency does the source give for CN1CCN(CCCNC(=O)Cn2c(-c3cccs3)cc3cc(Cl)ccc32)CC1 here?
Answer: inconclusive [falling, single point]

Question: For CCOc1ccc(NC(=O)c2cnn(-c3ccc(C)c(Cl)c3)c2C2CCNCC2)cc1, which Potency is on record?
Answer: inconclusive [falling, single point]

Question: With Cc1ccc2[nH]c(C(=O)Nc3ccccc3)cc2c1 as the molecule, how does the Potency read?
Answer: inconclusive [falling, partial curve, poor fit]

Question: With CCc1ccc2oc(-c3cccc(NC(=O)c4cc5ccccc5o4)c3)nc2c1 as the molecule, how does the Potency read?
Answer: inconclusive [activator, partial curve, poor fit]

Question: Which Potency does the source give for CCCCOc1ccc(CNC(=O)c2ccc(-c3nc(CN4CCc5ccccc54)c(C)o3)cc2)cc1 here?
Answer: inconclusive [falling, partial curve, poor fit]
